Results taken from article PMC10991392.
Results are given in words; binding and its absence hold for the method and conditions named. Binding seen in cells or lysates may run through a third protein. Some results given as binding are weak or reduced against the parent protein; the word gives no strength.

Chains of the proteins cited; added tags and fusions are not shown. Lines headed by an entry give the natural chain unless they say otherwise; changes in a name come on top. A line that says so, or that is headed by a name, gives the form on record, which may keep a tag or linker.
UniProt Q12778: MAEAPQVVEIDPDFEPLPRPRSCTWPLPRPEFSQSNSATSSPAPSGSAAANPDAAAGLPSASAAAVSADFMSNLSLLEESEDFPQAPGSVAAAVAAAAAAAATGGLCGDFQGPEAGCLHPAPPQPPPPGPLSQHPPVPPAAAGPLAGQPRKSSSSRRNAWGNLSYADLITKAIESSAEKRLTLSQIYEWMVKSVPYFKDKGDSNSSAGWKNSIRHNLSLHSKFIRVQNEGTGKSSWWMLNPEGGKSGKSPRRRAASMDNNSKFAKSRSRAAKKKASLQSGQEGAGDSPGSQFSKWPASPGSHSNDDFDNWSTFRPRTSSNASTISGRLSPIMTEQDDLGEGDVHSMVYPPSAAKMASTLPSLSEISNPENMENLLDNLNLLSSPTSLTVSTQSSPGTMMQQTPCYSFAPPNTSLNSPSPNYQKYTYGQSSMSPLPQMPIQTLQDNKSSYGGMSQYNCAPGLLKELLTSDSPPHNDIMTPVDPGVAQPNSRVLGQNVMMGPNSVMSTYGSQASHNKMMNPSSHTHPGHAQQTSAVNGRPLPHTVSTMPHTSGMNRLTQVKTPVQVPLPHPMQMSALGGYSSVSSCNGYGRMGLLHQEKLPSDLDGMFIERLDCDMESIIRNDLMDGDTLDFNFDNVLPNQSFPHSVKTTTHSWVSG
FLAG-tagged FOXO1-minus NLS/NES (Q12778, form named): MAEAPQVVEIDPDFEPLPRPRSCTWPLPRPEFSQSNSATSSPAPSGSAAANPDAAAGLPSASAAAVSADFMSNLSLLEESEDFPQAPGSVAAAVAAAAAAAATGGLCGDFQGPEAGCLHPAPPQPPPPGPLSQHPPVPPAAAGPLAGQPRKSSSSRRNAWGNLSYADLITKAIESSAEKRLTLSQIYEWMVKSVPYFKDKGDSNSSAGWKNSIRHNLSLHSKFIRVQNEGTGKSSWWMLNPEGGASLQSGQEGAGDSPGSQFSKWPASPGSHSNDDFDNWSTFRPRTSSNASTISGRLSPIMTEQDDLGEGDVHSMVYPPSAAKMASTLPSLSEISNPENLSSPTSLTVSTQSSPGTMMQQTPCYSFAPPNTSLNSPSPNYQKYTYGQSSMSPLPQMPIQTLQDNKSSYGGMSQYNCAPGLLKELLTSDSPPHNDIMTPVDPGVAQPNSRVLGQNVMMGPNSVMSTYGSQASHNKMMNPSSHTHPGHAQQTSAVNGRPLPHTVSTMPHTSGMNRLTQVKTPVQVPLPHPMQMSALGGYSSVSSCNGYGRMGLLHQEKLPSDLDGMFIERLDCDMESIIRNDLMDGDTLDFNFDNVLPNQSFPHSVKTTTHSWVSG
UniProt O14980: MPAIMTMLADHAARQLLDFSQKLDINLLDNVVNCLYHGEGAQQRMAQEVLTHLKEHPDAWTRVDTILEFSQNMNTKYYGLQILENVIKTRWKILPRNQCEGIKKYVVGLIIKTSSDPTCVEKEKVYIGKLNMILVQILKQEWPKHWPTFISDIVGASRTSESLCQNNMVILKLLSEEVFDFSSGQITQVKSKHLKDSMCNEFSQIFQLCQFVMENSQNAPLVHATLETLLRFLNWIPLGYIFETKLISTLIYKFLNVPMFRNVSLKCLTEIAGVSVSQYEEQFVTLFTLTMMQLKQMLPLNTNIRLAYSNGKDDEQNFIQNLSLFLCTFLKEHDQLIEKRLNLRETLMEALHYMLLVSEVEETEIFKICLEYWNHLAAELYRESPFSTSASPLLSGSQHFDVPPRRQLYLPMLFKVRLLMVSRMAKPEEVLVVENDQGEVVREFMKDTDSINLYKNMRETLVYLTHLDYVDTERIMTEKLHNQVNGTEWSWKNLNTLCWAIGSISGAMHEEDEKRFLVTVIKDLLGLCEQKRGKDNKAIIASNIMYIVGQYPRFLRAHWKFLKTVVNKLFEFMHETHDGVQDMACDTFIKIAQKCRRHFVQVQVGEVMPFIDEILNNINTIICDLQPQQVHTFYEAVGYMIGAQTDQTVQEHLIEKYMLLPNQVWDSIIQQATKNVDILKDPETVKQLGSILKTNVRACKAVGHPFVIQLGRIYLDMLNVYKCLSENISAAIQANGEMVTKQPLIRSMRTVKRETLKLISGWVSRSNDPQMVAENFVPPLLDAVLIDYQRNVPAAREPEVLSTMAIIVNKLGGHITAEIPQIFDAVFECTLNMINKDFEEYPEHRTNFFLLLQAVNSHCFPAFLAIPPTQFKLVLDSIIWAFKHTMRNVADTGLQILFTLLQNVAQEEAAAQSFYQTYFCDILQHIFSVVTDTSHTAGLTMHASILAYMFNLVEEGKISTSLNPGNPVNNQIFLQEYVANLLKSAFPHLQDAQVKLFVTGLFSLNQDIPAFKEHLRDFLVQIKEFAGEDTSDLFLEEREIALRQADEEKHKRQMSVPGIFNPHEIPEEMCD

Tests used:
[1] = biological target: forkhead box O1 (FOXO1) (human (endogenous in H1 ESCs and ARPE-19)) (UniProt Q12778); assay: co-IP; FOXO1 immunoprecipitated from ARPE-19(WT) and ARPE-19(FOXO1-minus SIM) cell extracts at annotated temperatures; blots for XPO1, IPO7 and FOXO1
[2] = biological target: forkhead box O1 (FOXO1) (human (endogenous in H1 ESCs and ARPE-19)) (UniProt Q12778); assay: proximity ligation; PLA kit (DUO92101, Sigma-Aldrich) on fixed, permeabilised H1 ESCs kept at 37 °C or exposed to 4 °C; endogenous proteins; puncta per cell counted
[3] = biological target: forkhead box O1 (FOXO1) (human (endogenous in H1 ESCs and ARPE-19)) (UniProt Q12778); assay: co-IP; FOXO1 immunoprecipitated from H1 cell extracts (cells at 37 °C or 4 °C); blots for XPO1, IPO7 and FOXO1
[4] = biological target: forkhead box O1 (FOXO1) (human (endogenous in H1 ESCs and ARPE-19)) (UniProt Q12778); assay: proximity ligation; PLA in ARPE-19(WT) and ARPE-19(FOXO1-minus SIM) cells at 37 °C; FOXO1 with endogenous XPO1 or with overexpressed HA-tagged XPO1 K752R/K957R
FLAG-tagged FOXO1 = FLAG-tagged FOXO1 (UniProt Q12778); assay: proximity ligation; PLA in ARPE-19(WT) cells overexpressing FLAG-tagged FOXO1 or FOXO1-minus NLS/NES, at 37 °C and 4 °C; with XPO1 or IPO7
[5] = biological target: FLAG-tagged FOXO1-minus NLS/NES (UniProt Q12778); assay: as above

binding [1]	binding [2]	binding [3]	binding [4]	binding (FLAG-tagged FOXO1)	binding [5]	Substance
binds	binds	binds	binds	binds	binds	Exportin-1 (XPO1) (from UniProt O14980 1-1071)
–	–	–	no binding	–	–	HA-tagged XPO1 with both SUMOylation sites replaced with an arginine residue (K752R and K957R) (from UniProt O14980 1-1071)
